# Measurements reported in the supplement of paper PMC12217912.
# The other results are listed elsewhere or left out. Sequences were assembled here from the parent chain. Values near 0.05 are background.
# B1: TEV protease; numbered along this chain (parent)
# chain: MGESLFKGPRDYNPISSSICHLTNESDGHTTSLYGIGFGPFIITNKHLFRRNNGTLVVQSLHGVFKVKDTTTLQQHLVDGRDMIIIRMPKDFPPFPQKLKFREPQREERICLVTTNFQTKSMSSMVSDTSCTFPSGDGIFWKHWIQTKDGQCGSPLVSTRDGFIVGIHSASNFTNTNNYFTSVPKNFMELLTNQEAQQWVSGWRLNADSVLWGGHKVFMVKPEEPFQPVKEATQL
# Variants of: B1
# Assay: raw area under fraction-flipped curve 0-4 h after induction (AUC4h, not background-subtracted), DNA-recorder readout of cleavage of the substrate (dimensionless); higher = more cleavage of the substrate by the protease variant
# Conditions: temperature: 34 °C; time window: 0-4 h after rhamnose induction
# Description: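 In vivo DNA recorder in E. coli TOP10(DE3) ΔrhaA at 34 °C. Each TEVp single-site mutant (parent TEVp 0) is paired with a single-site variant of the 7-mer TEVs (canonical ENLYFQ|S). The substrate sits between flexible linkers in a Bxb1-sfGFP-TEVs-SsrA fusion, so cleavage stabilises Bxb1 and speeds flipping of a recombination array, read by NGS. The value is the raw area under the fraction-flipped curve over 0-4 h after rhamnose induction (AUC4h), with ≥20 reads per time point. It is not background-subtracted; inactive controls average about 0.047.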
# 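Also: Bxb1 expression induced with 0.2% (w/v) L-rhamnose at OD600 near 0.5, cultures sampled hourly, flipped fraction per protease–substrate barcode pair counted by paired-end Illumina sequencing.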
Variant,area with substrate ENLAFQS,area with substrate ENLCFQS,area with substrate ENLDFQS,area with substrate ENLEFQS,area with substrate ENLFFQS,area with substrate ENLGFQS,area with substrate ENLKFQS,area with substrate ENLLFQS,area with substrate ENLNFQS,area with substrate ENLPFQS,area with substrate ENLQFQS,area with substrate ENLRFQS,area with substrate ENLSFQS,area with substrate ENLVFQS,area with substrate ENLWFQS,area with substrate ENLIFQS,area with substrate ENLMFQS,area with substrate ENLTFQS,area with substrate ENLHFQS
MGESLFKGPRDYNPISSSICHLTNESDGHTTSLYGIGFGPFIITNKHLFRRNNGTLVVQSLHGVFKVKDTTTLQQHLVDGRDMIIIRMPKDFPPFPQKLKFREPQREERICLVTTNFQTKSMSSMVSDTSCTFPSGDGIFWKHWIQTKDGQCGSPLVSTRDGFIVGIHDASNFTNTNNYFTSVPKNFMELLTNQEAQQWVSGWRLNADSVLWGGHKVFMVKPEEPFQPVKEATQL [S169D],0.0758,0.0505,0.0652,0.0563,0.0586,0.0662,0.0618,0.05,0.0629,0.073,0.0514,0.0761,0.0694,0.0538,0.0584,,,,
MGESLFKGPRDYNPISSSICHLTNESDGHTTSLYGIGFGPFIITNKHLFRRNNGTLVVQSLHGVFKVKDTTTLQQHLVDGRDMIIIRMPKDFPPFPQKLKFREPQREERICLVTTNFQTKSMSSMVSDTSCTFPSGDGIFWKHWIQTKDGQCGSPLVSIRDGFIVGIHSASNFTNTNNYFTSVPKNFMELLTNQEAQQWVSGWRLNADSVLWGGHKVFMVKPEEPFQPVKEATQL [T159I],0.0634,,0.0573,0.0711,,,0.0589,0.0809,0.0645,0.0635,,,,,0.0747,0.106,0.0598,0.0658,
MGESLFKGPRDYNPISSSICHLTNESDGHTTSLYGIGFGPFIITNKHLFRRNNGTLVVQSLHGVFKVKDTTTLQQHLVDGRDMIIIRMPKDFPPFPQKLKFREPQREERICLVTTNFQTKSMSSMVSDTSCTFPSGDGIFWKHWIQTKDGQCGSPLVSTRDGIIVGIHSASNFTNTNNYFTSVPKNFMELLTNQEAQQWVSGWRLNADSVLWGGHKVFMVKPEEPFQPVKEATQL [F163I],0.08,0.0645,0.0724,0.0533,0.0922,,0.0681,,0.0695,,,0.0699,,0.0694,0.0689,,,,0.0639
MGESLFKGPRDYNPISSSICHLTNESDGHTTSLYGIGFGPFIITNKHLFRRNNGTLVVQSLHGVFKVKDTTTLQQHLVDGRDMIIIRMPKDFPPFPQKLKFREPQREERICLVTTNFQTKSMSSMVSDTSCTFPSGDGIFWKHWIQTKDGQCGSPLVSTRDDFIVGIHSASNFTNTNNYFTSVPKNFMELLTNQEAQQWVSGWRLNADSVLWGGHKVFMVKPEEPFQPVKEATQL [G162D],0.012,0.0623,0.0593,,0.052,,0.0879,,0.0674,,0.0703,,0.0649,,0.104,0.0492,,,0.0673
MGESLFKGPRDYNPISSSICHLTNESDGHTTSLYGIGFGPFIITNKHLFRRNNGTLVVQSLHGVFKVKDTTTLQQHLVDGRDMIIIRMPKDFPPFPQKLKFREPQREERICLVTTNFQTKSMSSMVSDTSCTFPSGDGIFWKHWIQTKDGQCGSPLVSTRDFFIVGIHSASNFTNTNNYFTSVPKNFMELLTNQEAQQWVSGWRLNADSVLWGGHKVFMVKPEEPFQPVKEATQL [G162F],0.065,0.0626,0.0605,0.0842,0.0731,0.053,0.0652,0.0753,0.0471,0.0589,0.0599,0.0621,0.061,0.0617,,0.0684,,,0.0624
MGESLFKGPRDYNPISSSICHLTNESDGHTTSLYGIGFGPFIITNKHLFRRNNGTLVVQSLHGVFKVKDTTTLQQHLVDGRDMIIIRMPKDFPPFPQKLKFREPQREERICLVTTNFQTKSMSSMVSDTSCTFPSGDGIFWKHWIQTKDGQCGSPLVYTRDGFIVGIHSASNFTNTNNYFTSVPKNFMELLTNQEAQQWVSGWRLNADSVLWGGHKVFMVKPEEPFQPVKEATQL [S158Y],0.0489,0.0615,0.0393,0.0521,0.0826,,,0.0514,0.0593,0.0452,,0.0511,0.0442,0.0635,0.052,0.061,,,0.0519
MGESLFKGPRDYNPISSSICHLTNESDGHTTSLYGIGFGPFIITNKHLFRRNNGTLVVQSLHGVFKVKDTTTLQQHLVDGRDMIIIRMPKDFPPFPQKLKFREPQREERICLVTTNFQTKSMSSMVSDTSCTFPSGDGIFWKHWIQTKDGNCGSPLVSTRDGFIVGIHSASNFTNTNNYFTSVPKNFMELLTNQEAQQWVSGWRLNADSVLWGGHKVFMVKPEEPFQPVKEATQL [Q151N],0.0584,0.0721,0.0633,0.0678,,0.057,0.0698,0.0639,0.0647,0.0656,0.051,0.0584,0.0632,,0.0952,0.0668,0.0596,0.0614,0.0662
MGESLFKGPRDYNPISSSICHLTNESDGHTTSLYGIGFGPFIITNKHLFRRNNGTLVVQSLHGVFKVKDTTTLQQHLVDGRDMIIIRMPKDFPPFPQKLKFREPQREERICLVTTNFQTKSMSSMVSDTSCTFPSGDGIFWKHWIQTKDGYCGSPLVSTRDGFIVGIHSASNFTNTNNYFTSVPKNFMELLTNQEAQQWVSGWRLNADSVLWGGHKVFMVKPEEPFQPVKEATQL [Q151Y],0.0693,0.0585,0.0494,0.0722,0.0652,,0.0559,,0.0696,0.0532,0.0765,0.0749,0.0585,0.0931,,,,0.0817,0.0813
MGESLFKGPRDYNPISSSICHLTNESDGHTTSLYGIGFGPFIITNKHLFRRNNGTLVVQSLHGVFKVKDTTTLQQHLVDGRDMIIIRMPKDFPPFPQKLKFREPQREERICLVTTNFQTKSMSSMVSDTSCTFPSGDGIFWKHWIQTKDGTCGSPLVSTRDGFIVGIHSASNFTNTNNYFTSVPKNFMELLTNQEAQQWVSGWRLNADSVLWGGHKVFMVKPEEPFQPVKEATQL [Q151T],0.0704,0.0511,0.0501,0.0391,0.11,0.0663,0.0765,0.0569,0.0634,0.0675,0.0578,0.0683,0.048,,,,0.0736,,0.0785
MGESLFKGPRDYNPISSSICHLTNESDGHTTSLYGIGFGPFIITNKHLFRRNNGTLVVQSLHGVFKVKDTTTLQQHLVDGRDMIIIRMPKDFPPFPQKLKFREPQREERICLVTTNFQTKSMSSMVSDTSCTFPSGDGIFWKHWIQTKDGQCGSPLVSTRDGFGVGIHSASNFTNTNNYFTSVPKNFMELLTNQEAQQWVSGWRLNADSVLWGGHKVFMVKPEEPFQPVKEATQL [I164G],0.0707,,0.0334,0.0736,0.0776,,0.0527,,,0.0623,0.0394,0.0467,,,,0.0635,,,0.0634
MGESLFKGPRDYNPISSSICHLTNESDGHTTSLYGIGFGPFIITNKHLFRRNNGTLVVQSLHGVFKVKDTTTLQQHLVDGRDMIIIRMPKDFPPFPQKLKFREPQREERICLVTTNFQTKSMSSMVSDTSCTFPSGDGIFWKHWIQTKDGQCGSPLVSTRDGFQVGIHSASNFTNTNNYFTSVPKNFMELLTNQEAQQWVSGWRLNADSVLWGGHKVFMVKPEEPFQPVKEATQL [I164Q],0.0675,0.05,0.0523,0.0504,0.06,0.0616,0.0447,0.0565,0.0464,0.0575,0.037,0.0625,0.044,,0.0504,0.0642,0.0507,,0.0791
MGESLFKGPRDYNPISSSICHLTNESDGHTTSLYGIGFGPFIITNKHLFRRNNGTLVVQSLHGVFKVKDTTTLQQHLVDGRDMIIIRMPKDFPPFPQKLKFREPQREERICLVTTNFQTKSMSSMVSDTSCTFPSGDGIFWKHWIQTKDGQCGSPLWSTRDGFIVGIHSASNFTNTNNYFTSVPKNFMELLTNQEAQQWVSGWRLNADSVLWGGHKVFMVKPEEPFQPVKEATQL [V157W],0.0535,,0.0579,,0.0787,,0.0567,0.0525,0.0528,0.1,0.0492,,0.0684,0.0148,0.0522,0.0667,0.0597,,0.0661
MGESLFKGPRDYNPISSSICHLTNESDGHTTSLYGIGFGPFIITNKHLFRRNNGTLVVQSLHGVFKVKDTTTLQQHLVDGRDMIIIRMPKDFPPFPQKLKFREPQREERICLVTTNFQTKSMSSMVSDTSCTFPSGDGIFWKHWIQTKTGQCGSPLVSTRDGFIVGIHSASNFTNTNNYFTSVPKNFMELLTNQEAQQWVSGWRLNADSVLWGGHKVFMVKPEEPFQPVKEATQL [D149T],0.0534,0.0634,0.0575,0.0336,0.0835,0.0917,0.0194,0.0629,0.0745,0.0615,0.0662,0.0613,0.0769,,0.0578,0.0853,0.077,,0.0634
MGESLFKGPRDYNPISSSICHLTNESDGHTTSLYGIGFGPFIITNKHLFRRNNGTLVVQSLHGVFKVKDTTTLQQHLVDGRDMIIIRMPKDFPPFPQKLKFREPQREERICLVTTNFQTKSMSSMVSDTSCTFPSGDGIFWKHWIQTKDGQCGSPLVSTRDGFIVWIHSASNFTNTNNYFTSVPKNFMELLTNQEAQQWVSGWRLNADSVLWGGHKVFMVKPEEPFQPVKEATQL [G166W],0.0463,,0.0533,0.0535,0.053,,0.0637,0.0449,,0.0574,0.0396,0.0511,,0.0554,0.0561,0.0538,0.0662,,0.0481
MGESLFKGPRDYNPISSSICHLTNESDGHTTSLYGIGFGPFIITNKHLFRRNNGTLVVQSLHGVFKVKDTTTLQQHLVDGRDMIIIRMPKDFPPFPQKLKFREPQREERICLVTTNFQTKSMSSMVSDTSCTFPSGDGIFWKHWIQTKDGQCGSPLVSTRDGFIVFIHSASNFTNTNNYFTSVPKNFMELLTNQEAQQWVSGWRLNADSVLWGGHKVFMVKPEEPFQPVKEATQL [G166F],0.0442,,0.0507,0.0451,0.0487,,0.0569,,0.0534,,0.0497,0.0291,0.0598,0.0483,0.0554,,,0.0452,
MGESLFKGPRDYNPISSSICHLTNESDGHTTSLYGIGFGPFIITNKHLFRRNNGTLVVQSLHGVFKVKDTTTLQQHLVDGRDMIIIRMPKDFPPFPQKLKFREPQREERICLVTTNFQTKSMSSMVSDTSCTFPSGDGIFWKHWIQTKDGQCGSPLVSTRDGFIVGRHSASNFTNTNNYFTSVPKNFMELLTNQEAQQWVSGWRLNADSVLWGGHKVFMVKPEEPFQPVKEATQL [I167R],0.0401,0.0671,,,0.0593,0.0452,0.0499,0.0434,0.0609,,,0.0266,0.054,,,0.0551,,,0.0405
MGESLFKGPRDYNPISSSICHLTNESDGHTTSLYGIGFGPFIITNKHLFRRNNGTLVVQSLHGVFKVKDTTTLQQHLVDGRDMIIIRMPKDFPPFPQKLKFREPQREERICLVTTNFQTKSMSSMVSDTSCTFPSGDGIFWKHWIQTKDGQCGSPLVSTWDGFIVGIHSASNFTNTNNYFTSVPKNFMELLTNQEAQQWVSGWRLNADSVLWGGHKVFMVKPEEPFQPVKEATQL [R160W],0.0633,,,,0.0934,,0.0929,,,0.0923,,,,0.0805,,0.0584,,,
MGESLFKGPRDYNPISSSICHLTNESDGHTTSLYGIGFGPFIITNKHLFRRNNGTLVVQSLHGVFKVKDTTTLQQHLVDGRDMIIIRMPKDFPPFPQKLKFREPQREERICLVTTNFQTKSMSSMVSDTSCTFPSGDGIFWKHWIQTKDGQCGSPLVSTRDGFIPGIHSASNFTNTNNYFTSVPKNFMELLTNQEAQQWVSGWRLNADSVLWGGHKVFMVKPEEPFQPVKEATQL [V165P],0.0127,,0.0535,0.0611,0.0515,0.072,0.061,,0.07,0.0465,0.0587,,0.0519,,0.0349,0.0522,,,0.0648
